Test results reported in publication PMC3723532.
No constants are given. Whether binding was seen depends on the method and setting. In cells and extracts the contact can be indirect. Some results given as binding are weak or reduced against the parent protein; the word gives no strength. For some assays here: Sequences can lack the tags named with a protein.

Amino acid sequences for entries named in this document (tags omitted).
UniProt Q39204: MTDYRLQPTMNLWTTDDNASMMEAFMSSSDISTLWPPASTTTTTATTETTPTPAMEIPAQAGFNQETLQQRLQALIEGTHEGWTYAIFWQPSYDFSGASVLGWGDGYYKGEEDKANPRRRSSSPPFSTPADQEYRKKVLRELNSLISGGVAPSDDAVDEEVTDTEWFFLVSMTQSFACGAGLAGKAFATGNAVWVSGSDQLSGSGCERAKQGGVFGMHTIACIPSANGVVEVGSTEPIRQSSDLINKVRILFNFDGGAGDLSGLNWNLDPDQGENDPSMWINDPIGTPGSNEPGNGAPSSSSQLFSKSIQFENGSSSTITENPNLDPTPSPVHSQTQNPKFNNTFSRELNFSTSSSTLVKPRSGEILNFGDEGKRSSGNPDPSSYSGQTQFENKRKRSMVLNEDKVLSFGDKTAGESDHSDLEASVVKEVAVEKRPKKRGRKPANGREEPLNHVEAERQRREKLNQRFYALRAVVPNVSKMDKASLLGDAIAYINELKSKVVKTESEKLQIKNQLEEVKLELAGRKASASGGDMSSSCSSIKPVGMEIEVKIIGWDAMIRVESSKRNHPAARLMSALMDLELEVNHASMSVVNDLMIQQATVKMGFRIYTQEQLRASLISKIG
UniProt Q9FIP9: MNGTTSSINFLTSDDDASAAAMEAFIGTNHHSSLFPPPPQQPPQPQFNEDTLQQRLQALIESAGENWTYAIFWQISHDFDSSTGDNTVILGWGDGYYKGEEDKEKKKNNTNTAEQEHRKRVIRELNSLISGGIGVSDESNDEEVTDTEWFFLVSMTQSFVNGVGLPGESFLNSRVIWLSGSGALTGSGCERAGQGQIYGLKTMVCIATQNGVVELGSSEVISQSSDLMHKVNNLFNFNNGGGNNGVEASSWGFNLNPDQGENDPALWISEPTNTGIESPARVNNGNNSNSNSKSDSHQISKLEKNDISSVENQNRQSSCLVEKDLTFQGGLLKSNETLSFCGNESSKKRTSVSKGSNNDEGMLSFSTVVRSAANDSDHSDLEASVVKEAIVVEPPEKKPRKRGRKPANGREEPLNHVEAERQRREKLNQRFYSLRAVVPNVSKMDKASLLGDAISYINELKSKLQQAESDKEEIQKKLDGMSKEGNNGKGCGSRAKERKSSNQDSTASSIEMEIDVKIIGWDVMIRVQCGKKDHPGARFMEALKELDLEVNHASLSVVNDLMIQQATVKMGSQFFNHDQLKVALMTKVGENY
UniProt O49687: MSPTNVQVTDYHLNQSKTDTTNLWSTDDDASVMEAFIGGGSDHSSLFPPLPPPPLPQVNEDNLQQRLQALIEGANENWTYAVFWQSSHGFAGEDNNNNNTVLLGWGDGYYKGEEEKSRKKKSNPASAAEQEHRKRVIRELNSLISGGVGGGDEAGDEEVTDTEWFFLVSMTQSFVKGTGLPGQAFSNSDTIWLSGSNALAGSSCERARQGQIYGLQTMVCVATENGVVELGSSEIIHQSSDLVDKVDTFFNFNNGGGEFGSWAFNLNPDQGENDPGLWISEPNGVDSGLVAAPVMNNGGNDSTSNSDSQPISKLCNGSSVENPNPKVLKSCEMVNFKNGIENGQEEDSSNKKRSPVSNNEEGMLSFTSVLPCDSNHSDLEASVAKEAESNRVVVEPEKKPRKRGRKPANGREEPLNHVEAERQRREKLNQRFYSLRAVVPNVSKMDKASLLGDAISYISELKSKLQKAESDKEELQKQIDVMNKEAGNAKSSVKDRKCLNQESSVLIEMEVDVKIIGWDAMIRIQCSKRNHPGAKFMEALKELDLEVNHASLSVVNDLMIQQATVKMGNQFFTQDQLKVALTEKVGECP
UniProt Q93ZM9: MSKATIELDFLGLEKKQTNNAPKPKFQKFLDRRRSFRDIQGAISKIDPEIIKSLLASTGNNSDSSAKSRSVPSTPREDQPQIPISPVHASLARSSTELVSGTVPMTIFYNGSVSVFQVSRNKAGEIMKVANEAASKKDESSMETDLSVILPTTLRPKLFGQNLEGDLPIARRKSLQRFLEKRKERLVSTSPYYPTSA
UniProt O23487: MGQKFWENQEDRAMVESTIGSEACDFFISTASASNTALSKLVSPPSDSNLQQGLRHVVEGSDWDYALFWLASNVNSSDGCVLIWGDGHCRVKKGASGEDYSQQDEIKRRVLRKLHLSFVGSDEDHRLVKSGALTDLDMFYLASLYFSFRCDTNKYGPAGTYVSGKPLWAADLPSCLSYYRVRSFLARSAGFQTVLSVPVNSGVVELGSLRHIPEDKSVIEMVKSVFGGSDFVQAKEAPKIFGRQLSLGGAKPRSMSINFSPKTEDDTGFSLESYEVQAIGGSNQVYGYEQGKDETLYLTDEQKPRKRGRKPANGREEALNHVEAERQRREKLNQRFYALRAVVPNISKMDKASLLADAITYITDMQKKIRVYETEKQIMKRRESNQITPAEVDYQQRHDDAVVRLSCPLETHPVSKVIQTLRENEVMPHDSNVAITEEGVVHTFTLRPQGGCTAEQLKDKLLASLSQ
UniProt Q9LNJ5: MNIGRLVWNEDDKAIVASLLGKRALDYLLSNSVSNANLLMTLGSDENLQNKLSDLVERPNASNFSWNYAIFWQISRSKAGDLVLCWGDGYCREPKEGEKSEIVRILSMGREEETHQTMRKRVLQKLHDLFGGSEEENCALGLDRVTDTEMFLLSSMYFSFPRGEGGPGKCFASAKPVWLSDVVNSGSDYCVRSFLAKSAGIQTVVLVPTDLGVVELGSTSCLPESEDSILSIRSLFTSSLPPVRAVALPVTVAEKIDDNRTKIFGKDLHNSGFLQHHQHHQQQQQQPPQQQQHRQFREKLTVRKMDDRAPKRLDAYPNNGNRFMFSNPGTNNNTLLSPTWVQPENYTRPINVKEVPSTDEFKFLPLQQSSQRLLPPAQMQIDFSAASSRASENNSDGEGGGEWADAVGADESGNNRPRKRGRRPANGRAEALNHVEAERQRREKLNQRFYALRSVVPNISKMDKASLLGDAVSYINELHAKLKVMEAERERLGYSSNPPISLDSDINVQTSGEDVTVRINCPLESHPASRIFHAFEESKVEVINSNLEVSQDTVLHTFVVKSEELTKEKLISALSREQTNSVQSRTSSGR
UniProt Q9ZPY8: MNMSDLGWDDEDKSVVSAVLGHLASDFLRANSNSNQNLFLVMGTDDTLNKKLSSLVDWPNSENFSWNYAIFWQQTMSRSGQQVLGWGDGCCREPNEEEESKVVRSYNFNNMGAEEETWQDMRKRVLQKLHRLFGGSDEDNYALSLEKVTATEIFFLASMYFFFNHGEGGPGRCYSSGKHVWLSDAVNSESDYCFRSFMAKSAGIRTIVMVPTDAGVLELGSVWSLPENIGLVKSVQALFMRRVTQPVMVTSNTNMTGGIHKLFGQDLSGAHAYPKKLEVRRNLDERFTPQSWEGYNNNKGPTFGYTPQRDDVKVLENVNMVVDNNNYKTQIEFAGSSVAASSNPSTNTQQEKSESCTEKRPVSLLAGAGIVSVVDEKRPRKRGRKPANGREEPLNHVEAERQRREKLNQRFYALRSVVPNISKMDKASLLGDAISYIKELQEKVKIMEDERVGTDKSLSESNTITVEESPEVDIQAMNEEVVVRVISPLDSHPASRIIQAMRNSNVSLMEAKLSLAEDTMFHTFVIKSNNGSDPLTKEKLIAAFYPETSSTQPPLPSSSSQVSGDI

Tests used:
Experiment in all cases: split reporter; BiFC: nYFP and cYFP fusions coexpressed in N. benthamiana leaves by Agrobacterium infiltration; YFP fluorescence 50 h after infiltration, plants at 24°C
[1] = molecular target: T1, TT8 (BiFC fusion) (Arabidopsis thaliana) (UniProt Q9FT81)
T1 sequence: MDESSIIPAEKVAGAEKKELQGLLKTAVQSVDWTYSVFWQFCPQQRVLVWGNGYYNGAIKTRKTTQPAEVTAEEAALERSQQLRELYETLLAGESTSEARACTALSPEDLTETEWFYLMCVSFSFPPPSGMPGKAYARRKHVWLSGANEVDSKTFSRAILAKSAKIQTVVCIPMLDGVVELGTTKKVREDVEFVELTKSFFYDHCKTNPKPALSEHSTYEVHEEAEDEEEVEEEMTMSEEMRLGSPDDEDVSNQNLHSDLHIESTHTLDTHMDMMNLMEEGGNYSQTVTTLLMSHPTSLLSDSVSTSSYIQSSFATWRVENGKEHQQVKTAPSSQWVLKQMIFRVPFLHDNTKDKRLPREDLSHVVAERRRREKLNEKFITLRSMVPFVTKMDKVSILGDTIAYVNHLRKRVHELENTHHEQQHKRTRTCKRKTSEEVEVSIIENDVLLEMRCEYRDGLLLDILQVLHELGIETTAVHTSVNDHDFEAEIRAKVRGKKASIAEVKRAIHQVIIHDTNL

[2] = molecular target: MYC2 (BiFC fusion) (Arabidopsis thaliana) (UniProt Q39204)
[3] = molecular target: MYC3 (BiFC fusion) (Arabidopsis thaliana) (UniProt Q9FIP9)
[4] = molecular target: T2, GL3 (BiFC fusion) (Arabidopsis thaliana) (UniProt Q9FN69)
T2 sequence: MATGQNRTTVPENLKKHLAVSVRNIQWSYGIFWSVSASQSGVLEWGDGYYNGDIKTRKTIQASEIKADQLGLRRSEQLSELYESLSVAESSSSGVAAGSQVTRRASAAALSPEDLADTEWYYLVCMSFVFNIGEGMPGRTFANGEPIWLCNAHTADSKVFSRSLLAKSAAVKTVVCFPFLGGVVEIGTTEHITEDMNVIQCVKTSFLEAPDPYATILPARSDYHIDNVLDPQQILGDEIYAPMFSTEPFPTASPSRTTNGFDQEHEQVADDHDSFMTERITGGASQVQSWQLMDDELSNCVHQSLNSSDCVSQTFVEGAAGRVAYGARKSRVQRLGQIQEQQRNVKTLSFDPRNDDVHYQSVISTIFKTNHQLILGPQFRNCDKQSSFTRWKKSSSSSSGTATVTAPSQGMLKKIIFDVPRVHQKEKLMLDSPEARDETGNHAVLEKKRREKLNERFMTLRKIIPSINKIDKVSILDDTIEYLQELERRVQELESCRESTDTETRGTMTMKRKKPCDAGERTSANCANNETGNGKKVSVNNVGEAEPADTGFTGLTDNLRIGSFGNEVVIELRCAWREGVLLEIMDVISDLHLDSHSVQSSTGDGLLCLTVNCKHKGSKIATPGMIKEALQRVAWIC

[5] = molecular target: T3, GL1 (BiFC fusion) (Arabidopsis thaliana) (UniProt P27900)
T3 sequence: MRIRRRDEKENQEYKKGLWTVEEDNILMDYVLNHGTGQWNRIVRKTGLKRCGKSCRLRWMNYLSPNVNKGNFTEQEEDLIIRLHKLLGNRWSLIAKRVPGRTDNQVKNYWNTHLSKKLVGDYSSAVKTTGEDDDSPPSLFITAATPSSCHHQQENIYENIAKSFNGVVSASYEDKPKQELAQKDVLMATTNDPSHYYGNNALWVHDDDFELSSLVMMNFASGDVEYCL

[6] = molecular target: T4, MYB75 (BiFC fusion) (Arabidopsis thaliana) (UniProt Q9FE25)
T4 sequence: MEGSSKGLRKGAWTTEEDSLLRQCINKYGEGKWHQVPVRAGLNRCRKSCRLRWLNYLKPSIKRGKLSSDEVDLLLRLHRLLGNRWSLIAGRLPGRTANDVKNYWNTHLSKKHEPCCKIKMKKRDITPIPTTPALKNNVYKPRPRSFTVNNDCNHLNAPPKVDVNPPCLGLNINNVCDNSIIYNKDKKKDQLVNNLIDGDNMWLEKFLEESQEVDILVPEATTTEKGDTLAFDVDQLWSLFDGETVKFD

[7] = molecular target: T5, JAZ1-nYFP (Arabidopsis thaliana) (UniProt Q9LMA8)
T5 sequence: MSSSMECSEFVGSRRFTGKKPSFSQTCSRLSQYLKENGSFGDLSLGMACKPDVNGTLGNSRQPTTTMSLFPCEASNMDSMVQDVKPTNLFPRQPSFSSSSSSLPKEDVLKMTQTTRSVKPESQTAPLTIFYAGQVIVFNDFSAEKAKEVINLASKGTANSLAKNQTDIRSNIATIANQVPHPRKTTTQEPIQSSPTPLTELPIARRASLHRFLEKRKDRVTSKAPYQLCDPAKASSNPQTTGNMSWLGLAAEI

[8] = molecular target: MYC4 (BiFC fusion) (Arabidopsis thaliana) (UniProt O49687)
[9] = molecular target: T6, EGL3 (BiFC fusion) (Arabidopsis thaliana) (UniProt Q9CAD0)
T6 sequence: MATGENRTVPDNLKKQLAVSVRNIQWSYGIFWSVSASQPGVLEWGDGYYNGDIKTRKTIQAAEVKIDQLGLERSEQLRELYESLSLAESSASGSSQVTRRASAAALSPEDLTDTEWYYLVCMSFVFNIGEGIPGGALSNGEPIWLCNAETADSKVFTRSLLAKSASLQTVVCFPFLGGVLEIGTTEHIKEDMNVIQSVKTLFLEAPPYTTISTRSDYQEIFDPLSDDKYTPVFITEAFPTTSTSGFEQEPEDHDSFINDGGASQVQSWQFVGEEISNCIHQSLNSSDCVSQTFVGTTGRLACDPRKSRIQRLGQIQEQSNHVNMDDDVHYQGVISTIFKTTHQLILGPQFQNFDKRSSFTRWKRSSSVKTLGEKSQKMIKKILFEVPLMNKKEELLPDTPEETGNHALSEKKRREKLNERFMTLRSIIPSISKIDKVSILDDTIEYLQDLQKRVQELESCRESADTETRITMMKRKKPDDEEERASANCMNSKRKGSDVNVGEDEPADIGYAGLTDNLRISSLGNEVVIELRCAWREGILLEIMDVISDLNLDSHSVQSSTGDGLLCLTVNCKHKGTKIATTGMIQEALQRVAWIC

[10] = molecular target: JAZ10 (fused with nYFP) (Arabidopsis thaliana) (UniProt Q93ZM9)

| binding [1] | binding [2] | binding [3] | binding [4] | binding [5] | binding [6] | binding [7] | binding [8] | binding [9] | binding [10] | Substance |
| --- | --- | --- | --- | --- | --- | --- | --- | --- | --- | --- |
| no binding | no binding | no binding | no binding | no binding | no binding | binds | no binding | no binding |  | cYFP-bHLH3 (from UniProt O23487 1-467) |
| no binding | no binding | no binding | no binding | no binding | no binding | binds | no binding | no binding | binds | cYFP-bHLH13 (from UniProt Q9LNJ5 1-590) |
| no binding | no binding | no binding | no binding | no binding | no binding | binds | no binding | no binding | binds | cYFP-bHLH17 (from UniProt Q9ZPY8 1-566) |
